57 molecules from publication PMC4336329 (PLoS ONE, 2015) can be followed below.

Hit rate of the full screen: of about 310,000 compounds, about 2,200 (0.71%) showed an effect of 50% or more. Effects have a minus sign here. The list shows a part of the results.

The target of the test is human ether-à-go-go-related gene (hERG) potassium channel (human, UniProt Q12809). Briefly: primary screen, population patch clamp on CHO cells stably expressing hERG.
Chain of human ether-à-go-go-related gene (hERG) potassium channel (Q12809 whole entry, looked up): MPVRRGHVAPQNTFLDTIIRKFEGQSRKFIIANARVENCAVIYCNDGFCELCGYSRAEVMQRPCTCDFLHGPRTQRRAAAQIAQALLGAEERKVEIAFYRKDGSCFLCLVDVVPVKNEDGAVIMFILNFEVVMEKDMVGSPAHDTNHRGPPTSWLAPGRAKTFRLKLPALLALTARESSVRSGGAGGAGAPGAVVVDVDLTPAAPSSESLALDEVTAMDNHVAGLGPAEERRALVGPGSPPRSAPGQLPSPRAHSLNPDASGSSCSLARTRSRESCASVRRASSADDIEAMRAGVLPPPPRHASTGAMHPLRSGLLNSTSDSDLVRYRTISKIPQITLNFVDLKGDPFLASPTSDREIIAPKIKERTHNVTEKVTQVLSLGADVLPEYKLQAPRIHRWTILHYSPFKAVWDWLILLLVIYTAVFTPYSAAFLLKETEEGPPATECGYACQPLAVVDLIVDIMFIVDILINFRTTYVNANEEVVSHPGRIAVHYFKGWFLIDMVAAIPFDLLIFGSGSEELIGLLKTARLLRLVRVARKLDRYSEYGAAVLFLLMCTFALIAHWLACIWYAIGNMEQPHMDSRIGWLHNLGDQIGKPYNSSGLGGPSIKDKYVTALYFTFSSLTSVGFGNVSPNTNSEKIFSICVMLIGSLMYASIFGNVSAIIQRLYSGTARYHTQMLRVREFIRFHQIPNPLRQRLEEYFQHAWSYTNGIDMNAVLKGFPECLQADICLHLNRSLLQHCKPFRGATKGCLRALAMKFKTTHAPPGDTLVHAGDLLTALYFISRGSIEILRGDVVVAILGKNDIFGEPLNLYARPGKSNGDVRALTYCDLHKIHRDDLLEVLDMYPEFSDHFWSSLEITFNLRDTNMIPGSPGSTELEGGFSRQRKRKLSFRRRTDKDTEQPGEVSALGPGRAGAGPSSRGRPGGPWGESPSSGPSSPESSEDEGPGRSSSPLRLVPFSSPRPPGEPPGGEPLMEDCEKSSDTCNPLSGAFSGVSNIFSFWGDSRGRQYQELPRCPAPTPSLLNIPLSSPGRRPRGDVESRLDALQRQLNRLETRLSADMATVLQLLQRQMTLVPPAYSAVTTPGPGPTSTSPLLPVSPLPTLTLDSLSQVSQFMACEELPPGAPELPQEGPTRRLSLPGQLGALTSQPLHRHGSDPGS
For `CCC(C)C1(CC)C(=O)NC(=O)N=C1N` (stereo not drawn), the “hERG current change (%, negative = inhibition) at 1uM” value came out at 17.1%.
As for `Cc1cccnc1NC(=S)NC(=O)/C=C/c1ccco1`, the “hERG current change (%, negative = inhibition) at 1uM” value is on record as 4.31%.
The same measure for `CCC(C)[C@H]1COCCS(=O)(=O)N1Cc1ccc(Br)cc1` (stereo partly drawn): 3.17%; for `CC1(C)CC(NC(=O)C2CCC(=O)N(C3CC3)C2)CC(C)(C)C1` (stereo not drawn): 16.2%.
The same measure for `CCN(CC(=O)Nc1c(F)cccc1F)C(=O)c1cc([N+](=O)[O-])ccc1N1CCCCC1`: 6.52%; for `C=CCN(C(=O)c1cccc(C(F)(F)F)c1)C1(C(=O)Nc2ccccc2)CCN(C(C)C)CC1`: 7.11%.
With `COc1ccc(C(=O)c2c[nH]c(C(=O)NCCCN3CCOCC3)c2)cc1` the figure was 8.18%; with `CCCCN(Cc1ccco1)S(=O)(=O)c1ccc(-c2ccc(=O)[nH]n2)s1`, 0.212%.
Consider `COc1ccc(C(=O)Nc2ccc(N3CCN(C)CC3)cc2)cc1OC`, for which the “hERG current change (%, negative = inhibition) at 1uM” value worked out at 7.43%.
With `Cc1noc(C(=O)NCC2CCCO2)c1Cl` (stereo not drawn) the figure was 15.9%; with `COC(=O)c1[nH]nc(-c2ccccc2)c1-c1ccccc1`, -0.514%; with `COc1ccc(S(=O)(=O)n2ccc(C)n2)cc1C`, 5.41%.
The same measure for `COc1ccc(S(=O)(=O)NCC2CCCN(C(=O)C3CCCC3)C2)cc1` (stereo not drawn): 13.6%; for `COC(=O)Cn1cnc2c(nnn2-c2ccc(C)cc2)c1=O`: 8.54%.
The same measure for `COc1ccc(CN2C(=O)c3ccccc3C2C(=O)NCCc2ccccc2)c(OC)c1` (stereo not drawn): -5.73%; for `Cc1cccc(N2CCN(Cc3ccc(Br)o3)CC2)c1C`: 10.6%; for `C(=N\n1cnnc1)/c1cn(Cc2ccccc2)c2ccccc12`: 15.4%.
For the molecule `Cc1cc(C)c2nc(C(F)(F)F)nc(N3CC(C)OC(C)C3)c2c1` (stereo not drawn), the “hERG current change (%, negative = inhibition) at 1uM” value is given as 13.9%.
With `Cc1ccc(S(=O)(=O)Nc2ccc(Cl)cn2)cc1C` the figure was 12.3%; with `CC(C)CN(C(=O)c1ccc2c(c1)OCO2)C1CCS(=O)(=O)C1` (stereo not drawn), -7.81%; with `O=C(OCCOc1cccc(Cl)c1)c1ccc(F)c(S(=O)(=O)N2CCOCC2)c1`, 9.78%.
The same measure for `Cc1ccc(C(=O)Nc2ccncc2)c(Cl)c1`: 12.9%; for `COc1ccc(-c2[nH]ncc2-c2csc(C)n2)c(O)c1`: 13.7%.
In the case of `CCOC(=O)/C(=N\Nc1ccc(Cl)cc1)c1csc(Nc2ccccc2)n1`, the “hERG current change (%, negative = inhibition) at 1uM” value was found to be 1.88%.
The same measure for `O=C(CN1C(=O)NC2(CCCCC2)C1=O)NCCc1c[nH]c2ccccc12`: 12.8%.
Take `CCOC(=O)Nc1sc2c(c1C#N)CCC(C)C2` (stereo not drawn): the “hERG current change (%, negative = inhibition) at 1uM” value amounted to 9.92%.
With `CCCC(c1nnnn1Cc1ccc(OC)cc1)N1CCN(C(=O)c2ccco2)CC1` (stereo not drawn) the figure was -20.7%; with `CCOc1ccc(C(=O)CCC(=O)Nc2ccccc2C)cc1`, 12.5%; with `COC(=O)c1c(NC(=O)c2cccnc2)sc(C(=O)N(C)C)c1C`, 14.9%.
The same measure for `Cc1cc(C(=O)N/N=C/c2ccco2)c2ccccc2n1`: 6.94%.
For `Cc1ccc(SCCNC(=S)Nc2ccccc2)cc1`, the “hERG current change (%, negative = inhibition) at 1uM” value was -0.346%.
As to `COc1ccc(S(=O)(=O)N2CCN(CC(O)CN3CCOCC3)CC2)cc1` (stereo not drawn), the “hERG current change (%, negative = inhibition) at 1uM” value is on record as 10.4%.
The same measure for `COc1cc(C(c2c(C)[nH][nH]c2=O)c2c(C)[nH][nH]c2=O)ccc1OC(=O)c1cccc([N+](=O)[O-])c1`: 14.1%; for `O=C(OCN1C(=O)c2ccccc2C1=O)c1cccnc1SC(F)F`: 1.31%.
Turning to `CN1CCN(c2nc(-c3ccco3)cc(C(F)(F)F)n2)CC1`, the “hERG current change (%, negative = inhibition) at 1uM” value was -12.4%.
With `CC(NC(=O)CNC(=S)N(Cc1ccccc1)Cc1cccnc1)c1ccccc1` (stereo not drawn) the figure was 9.68%; with `COc1cccc(C(=O)Nc2cccc(C(=O)NC3=NN(c4c(Cl)cc(Cl)cc4Cl)C(=O)C3)c2)c1`, 7.9%.
In the case of `COc1ccc(OC)c(NC(=O)c2ccccc2OC(C)=O)c1`, the “hERG current change (%, negative = inhibition) at 1uM” value is 18.4%.
The same measure for `COc1ccccc1-c1ccc(SCc2ccccc2)nn1`: 4.58%.
With `Cc1ccc(O)c(NC(=O)c2cc(-c3ccco3)on2)c1` the figure was 9.76%; with `COc1ccc(NC(=O)/C(C#N)=C/c2ccc(-c3ccccc3C(=O)O)o2)cc1`, 10.1%; with `O=C(Oc1ccc(-c2nnco2)cc1)c1ccco1`, 14.3%.
With `C=CCn1c(SCC(=O)Nc2ccc3c(c2)CCC3)nnc1-c1cccs1` the figure was -83.5%; with `Cc1ccc(NC(=O)C2CCCN2C(=O)OCc2ccccc2)cc1F` (stereo not drawn), 14.9%; with `OC(COC(c1ccccc1)c1ccccc1)CN1CCN(c2cccc(Cl)c2)CC1` (stereo not drawn), 12.2%.
As to `C=CCn1c(SCC(=O)Nc2ncc(Cc3cc(C(F)(F)F)ccc3Cl)s2)nnc1-c1ccncc1`, the “hERG current change (%, negative = inhibition) at 1uM” value is given as 1.81%.
With `COc1cccc2cc(C(=O)N3CCN(C(=O)c4ccccc4)CC3)c(=O)oc12` the figure was 7.85%.
The same measure for `Cc1nc2nc(-c3cccs3)[nH]c2cc1Br`: 6.54%; for `CC1(C)CC(=O)CC(C)(C)N1OC(=O)c1ccco1`: 6.77%; for `CCOc1ccc(-c2c(C#N)c(N)nc3sc(C(=O)c4ccccc4)c(N)c23)cc1`: 6.4%.
With `Cc1cc(C(=O)NNS(=O)(=O)c2ccc(C(C)(C)C)cc2)nn1C(C)(C)C` the figure was 4.28%; with `CCc1cc(C(=O)OC)c(NC(=O)CC2Sc3ccc(C(F)(F)F)cc3NC2=O)s1` (stereo not drawn), 12%; with `COC(=O)c1cn(NC(=O)Cc2ccc(OC)c(OC)c2)c(=O)c2ccccc12`, 1.46%.
Consider `COc1cc([N+](=O)[O-])c2nccnc2c1`, for which the “hERG current change (%, negative = inhibition) at 1uM” value is 19.3%.
With `O=C(Nc1cccc(-c2cn3cccnc3n2)c1)c1ccc2c(c1)OCO2` the figure was 4.37%; with `CCc1nnc(NC(=O)c2nc3nc(C)cc(C)n3n2)s1`, 7.08%.
With `Cc1ccc2nc(-c3cccnc3)c(NC3CCCCC3)n2c1` the figure was 5.38%.
